{"sequences": {"note": "Protein sequences, listed by entry. Tags and fused reporters are not part of them.", "UniProt O15551": "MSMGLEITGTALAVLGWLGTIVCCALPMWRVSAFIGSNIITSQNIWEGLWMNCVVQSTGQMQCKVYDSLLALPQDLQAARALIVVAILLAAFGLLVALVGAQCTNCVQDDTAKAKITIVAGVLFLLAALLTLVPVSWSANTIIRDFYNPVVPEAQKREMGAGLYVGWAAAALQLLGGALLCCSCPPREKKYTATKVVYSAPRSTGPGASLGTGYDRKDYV", "UniProt O14493": "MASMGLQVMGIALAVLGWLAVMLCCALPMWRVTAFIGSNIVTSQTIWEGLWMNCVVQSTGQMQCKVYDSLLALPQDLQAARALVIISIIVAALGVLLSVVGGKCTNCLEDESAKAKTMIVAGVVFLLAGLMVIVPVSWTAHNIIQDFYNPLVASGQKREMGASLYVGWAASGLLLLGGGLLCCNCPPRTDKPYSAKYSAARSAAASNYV"}, "source": "paper PMC7757826", "key": {"[1]": {"target": "T1, Epithelial cell adhesion molecule (EpCAM) (human (endogenous in A2780, OVCAR-3, SKOV-3 and A2780cis cells)) (UniProt P16422)", "T1 sequence": "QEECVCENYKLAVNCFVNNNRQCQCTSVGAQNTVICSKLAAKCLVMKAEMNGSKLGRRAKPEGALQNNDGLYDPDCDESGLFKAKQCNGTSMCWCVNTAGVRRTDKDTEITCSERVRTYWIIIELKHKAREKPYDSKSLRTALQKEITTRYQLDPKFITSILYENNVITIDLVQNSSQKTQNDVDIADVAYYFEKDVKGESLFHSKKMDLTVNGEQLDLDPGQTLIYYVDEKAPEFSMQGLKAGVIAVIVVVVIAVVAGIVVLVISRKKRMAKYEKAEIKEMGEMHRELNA", "experiment": "co-IP; OVCAR-3 cells lysed in 1% Triton X-100 buffer; lysates precipitated with antibodies to the studied molecules, western blot"}, "[2]": {"target": "T2, CD82 (Tspan-27) (human (endogenous in A2780, OVCAR-3, SKOV-3 and A2780cis cells)) (UniProt P27701)", "T2 sequence": "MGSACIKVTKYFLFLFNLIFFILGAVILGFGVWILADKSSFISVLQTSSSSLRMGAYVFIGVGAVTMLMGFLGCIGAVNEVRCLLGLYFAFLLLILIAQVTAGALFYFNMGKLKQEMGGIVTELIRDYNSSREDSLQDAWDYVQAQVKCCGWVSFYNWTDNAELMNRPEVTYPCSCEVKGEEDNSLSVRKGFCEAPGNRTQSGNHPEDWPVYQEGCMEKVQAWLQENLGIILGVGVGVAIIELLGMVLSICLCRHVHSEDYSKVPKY", "experiment": "condition: only lysed in RIPA buffer after DTSSP treatment; cross-linking + co-IP; A2780 cells treated with the membrane-impermeable cross-linker DTSSP (1 mM, 30 min, 37 °C), lysed in RIPA buffer; anti-CD82 or anti-claudin-7 precipitates"}, "[3]": {"target": "T2, CD82 (Tspan-27) (human (endogenous in A2780, OVCAR-3, SKOV-3 and A2780cis cells))", "experiment": "cross-linking + co-IP; A2780 cells treated with the membrane-permeable cross-linker DSP (1 mM, 30 min, 37 °C), lysed in RIPA buffer; anti-CD82 or anti-claudin-7 precipitates"}, "[4]": {"target": "T2, CD82 (Tspan-27) (human (endogenous in A2780, OVCAR-3, SKOV-3 and A2780cis cells))", "experiment": "condition: only cells treated with 50 μM 2-BP (palmitoylation inhibitor); co-IP; SKOV-3 cells treated with the palmitoylation inhibitor 2-BP (50 μM, 20 h, 37 °C), RIPA buffer; anti-CD82 or anti-claudin-7 precipitates"}, "[5]": {"target": "T1, Epithelial cell adhesion molecule (EpCAM) (human (endogenous in A2780, OVCAR-3, SKOV-3 and A2780cis cells))", "experiment": "co-IP; tumours of SKOV-3 xenograft nude mice, homogenised in 50 mM Tris-HCl pH 8.0, 150 mM NaCl, 1% Triton X-100; immunoprecipitation and western blot"}, "[6]": {"target": "T1, Epithelial cell adhesion molecule (EpCAM) (human (endogenous in A2780, OVCAR-3, SKOV-3 and A2780cis cells))", "experiment": "co-IP; A2780 cells lysed in 1% Triton X-100 buffer; lysates precipitated with antibodies to the studied molecules, western blot"}, "[7]": {"target": "T1, Epithelial cell adhesion molecule (EpCAM) (human (endogenous in A2780, OVCAR-3, SKOV-3 and A2780cis cells))", "experiment": "co-IP; SKOV-3 cells lysed in 1% Triton X-100 buffer; lysates precipitated with antibodies to the studied molecules, western blot"}, "[8]": {"target": "claudin-3 (human (endogenous in A2780, OVCAR-3 and SKOV-3 cells)) (UniProt O15551)", "experiment": "co-IP; OVCAR-3 cells lysed in 1% Triton X-100 buffer; lysates precipitated with antibodies to the studied molecules, western blot"}, "[9]": {"target": "T3, claudin-7 (human (endogenous in A2780, OVCAR-3, SKOV-3 and A2780cis cells)) (UniProt O95471)", "T3 sequence": "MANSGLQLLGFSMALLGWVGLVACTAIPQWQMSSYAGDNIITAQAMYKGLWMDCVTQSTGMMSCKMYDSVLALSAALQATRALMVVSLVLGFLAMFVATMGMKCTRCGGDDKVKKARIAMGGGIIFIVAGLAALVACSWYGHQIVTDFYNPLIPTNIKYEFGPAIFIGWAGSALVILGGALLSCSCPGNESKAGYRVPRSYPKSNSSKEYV", "experiment": "co-IP; OVCAR-3 cells lysed in 1% Triton X-100 buffer; lysates precipitated with antibodies to the studied molecules, western blot"}, "[10]": {"target": "claudin-4 (human (endogenous in A2780, OVCAR-3, SKOV-3 and A2780cis cells)) (UniProt O14493)", "experiment": "co-IP; OVCAR-3 cells lysed in 1% Triton X-100 buffer; lysates precipitated with antibodies to the studied molecules, western blot"}, "[11]": {"target": "T3, claudin-7 (human (endogenous in A2780, OVCAR-3, SKOV-3 and A2780cis cells))", "experiment": "cross-linking + co-IP; A2780 cells treated with the membrane-permeable cross-linker DSP (1 mM, 30 min, 37 °C), lysed in RIPA buffer; anti-CD82 or anti-claudin-7 precipitates"}, "[12]": {"target": "claudin-3 (human (endogenous in A2780, OVCAR-3 and SKOV-3 cells)) (UniProt O15551)", "experiment": "co-IP; SKOV-3 cells lysed in 1% Triton X-100 buffer; lysates precipitated with antibodies to the studied molecules, western blot"}, "[13]": {"target": "T3, claudin-7 (human (endogenous in A2780, OVCAR-3, SKOV-3 and A2780cis cells))", "experiment": "co-IP; SKOV-3 cells lysed in 1% Triton X-100 buffer; lysates precipitated with antibodies to the studied molecules, western blot"}, "[14]": {"target": "claudin-4 (human (endogenous in A2780, OVCAR-3, SKOV-3 and A2780cis cells)) (UniProt O14493)", "experiment": "co-IP; SKOV-3 cells lysed in 1% Triton X-100 buffer; lysates precipitated with antibodies to the studied molecules, western blot"}, "[15]": {"target": "T2, CD82 (Tspan-27) (human (endogenous in A2780, OVCAR-3, SKOV-3 and A2780cis cells))", "experiment": "condition: only lysed in RIPA buffer, untreated or DSP-treated cells; cross-linking + co-IP; A2780 cells treated with the membrane-permeable cross-linker DSP (1 mM, 30 min, 37 °C), lysed in RIPA buffer; anti-CD82 or anti-claudin-7 precipitates"}}, "note": "No constants are given. Whether binding was seen depends on the method and setting. Binding seen in cells or lysates may run through a third protein. Some results given as binding are weak or reduced against the parent protein; the word gives no strength."}
{"molecule": "claudin-4 (from UniProt O14493 1-209)", "values": [{"measurement": "binding", "setting": "[1]", "value": "binds"}, {"measurement": "binding", "setting": "[2]", "value": "no binding"}, {"measurement": "binding", "setting": "[3]", "value": "binds"}, {"measurement": "binding", "setting": "[4]", "value": "no binding"}, {"measurement": "binding", "setting": "[5]", "value": "binds"}, {"measurement": "binding", "setting": "[6]", "value": "binds weakly"}, {"measurement": "binding", "setting": "[7]", "value": "binds"}]}
{"molecule": "Epithelial cell adhesion molecule (EpCAM) (protein, UniProt P16422 24-314) QEECVCENYKLAVNCFVNNNRQCQCTSVGAQNTVICSKLAAKCLVMKAEMNGSKLGRRAKPEGALQNNDGLYDPDCDESGLFKAKQCNGTSMCWCVNTAGVRRTDKDTEITCSERVRTYWIIIELKHKAREKPYDSKSLRTALQKEITTRYQLDPKFITSILYENNVITIDLVQNSSQKTQNDVDIADVAYYFEKDVKGESLFHSKKMDLTVNGEQLDLDPGQTLIYYVDEKAPEFSMQGLKAGVIAVIVVVVIAVVAGIVVLVISRKKRMAKYEKAEIKEMGEMHRELNA", "values": [{"measurement": "binding", "setting": "[8]", "value": "binds"}, {"measurement": "binding", "setting": "[9]", "value": "binds"}, {"measurement": "binding", "setting": "[10]", "value": "binds"}, {"measurement": "binding", "setting": "[11]", "value": "binds"}, {"measurement": "binding", "setting": "[12]", "value": "binds"}, {"measurement": "binding", "setting": "[13]", "value": "binds"}, {"measurement": "binding", "setting": "[14]", "value": "binds"}, {"measurement": "binding", "setting": "[15]", "value": "no binding"}]}
